The whole screen tested about 310,000 compounds, of which about 14,000 (4.5%) showed an effect of 50% or more. Effects have a minus sign here. This is one part of the list.
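Also: peak tail current of the secondary pulse compared with the same well before compound.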

The target in the test is human ether-à-go-go-related gene (hERG) potassium channel (human, UniProt Q12809). Kind of test: primary screen, population patch clamp on CHO cells stably expressing hERG.
human ether-à-go-go-related gene (hERG) potassium channel, sequence (Q12809 whole entry, looked up): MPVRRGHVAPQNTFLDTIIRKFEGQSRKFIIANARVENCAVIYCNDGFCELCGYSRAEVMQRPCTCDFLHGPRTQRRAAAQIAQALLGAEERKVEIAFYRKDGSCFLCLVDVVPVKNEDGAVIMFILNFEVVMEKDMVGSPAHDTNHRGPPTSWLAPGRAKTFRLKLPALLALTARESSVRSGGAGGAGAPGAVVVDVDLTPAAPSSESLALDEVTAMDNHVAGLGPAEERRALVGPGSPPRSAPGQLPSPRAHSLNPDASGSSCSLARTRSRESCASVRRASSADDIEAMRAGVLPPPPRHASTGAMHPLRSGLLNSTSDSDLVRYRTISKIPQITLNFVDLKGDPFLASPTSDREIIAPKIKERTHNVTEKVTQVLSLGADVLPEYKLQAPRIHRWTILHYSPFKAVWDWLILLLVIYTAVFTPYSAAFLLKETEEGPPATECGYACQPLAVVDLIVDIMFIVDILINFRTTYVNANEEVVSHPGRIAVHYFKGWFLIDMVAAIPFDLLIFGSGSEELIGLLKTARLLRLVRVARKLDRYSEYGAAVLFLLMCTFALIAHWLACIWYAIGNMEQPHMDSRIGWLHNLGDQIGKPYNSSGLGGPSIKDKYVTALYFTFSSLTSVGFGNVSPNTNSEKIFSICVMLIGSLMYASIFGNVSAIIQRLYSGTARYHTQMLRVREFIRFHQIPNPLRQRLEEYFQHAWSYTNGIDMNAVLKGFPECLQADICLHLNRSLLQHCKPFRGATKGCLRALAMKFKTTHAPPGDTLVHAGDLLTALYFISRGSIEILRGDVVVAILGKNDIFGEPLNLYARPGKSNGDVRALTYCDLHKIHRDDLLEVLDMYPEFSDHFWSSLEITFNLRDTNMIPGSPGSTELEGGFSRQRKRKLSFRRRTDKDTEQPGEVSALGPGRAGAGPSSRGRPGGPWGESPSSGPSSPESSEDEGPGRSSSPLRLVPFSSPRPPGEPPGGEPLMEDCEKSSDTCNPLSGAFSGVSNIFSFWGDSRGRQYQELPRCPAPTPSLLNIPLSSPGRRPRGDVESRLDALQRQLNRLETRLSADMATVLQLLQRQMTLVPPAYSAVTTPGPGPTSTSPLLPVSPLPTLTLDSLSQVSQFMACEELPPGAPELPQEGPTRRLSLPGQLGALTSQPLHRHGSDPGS
For the molecule `O=C(CCc1nnc(C2CCCCC2)o1)N1CCN(Cc2ccccc2)CC1`, the “hERG current change (%, negative = inhibition) at 10uM” value is 5.53%.
With `Cn1nc(C(F)(F)F)c(CNC(=O)C(C)(C)CCl)c1N1CCOCC1`, the “hERG current change (%, negative = inhibition) at 10uM” value was determined as 4.09%.
Under `CC(C)CN(C(=O)COC(=O)c1cccnc1Cl)c1c(N)n(Cc2ccccc2)c(=O)[nH]c1=O` stands 4.02%; under `O=C(CSc1nc2ccc(Nc3nc(N4CCOCC4)nc(N4CCOCC4)n3)cc2s1)N1CCOCC1`, -16.2%.
For `COc1ccc(Cl)c2sc(N(CCN(C)C)C(=O)c3ccc4c(c3)OCCO4)nc12.Cl`, the “hERG current change (%, negative = inhibition) at 10uM” value is recorded as -29.2%.
In the case of `COc1cc(NC(=O)C/C(C)=N/NC(=O)C(OC)c2ccccc2)c(OC)cc1Cl` (centres unmarked) it was -9.34%.
With `O=C(O)c1ccc(COc2cccc(CO)c2)cc1`, the “hERG current change (%, negative = inhibition) at 10uM” value came out at 11.3%.
In the case of `CCOc1cc(/C=C2/C(=N)N3C(=NC2=O)SN=C3S(C)(=O)=O)ccc1OS(=O)(=O)c1ccccc1` it was 20.7%; in that of `COc1cccc(-c2cc(C(=O)Nc3cccc(O)c3)no2)c1`, 10.3%; in that of `CCOC(=O)c1c(-c2ccco2)csc1NC(=O)COC(=O)c1cnccn1`, 8.4%.
In the case of `C=CCc1cc(/C=N/n2cnnc2)cc(OCC)c1O` it was 6.82%.
Turning to `O=C(CN1CCC(NC(=O)c2ccccc2Cl)CC1)NCc1ccccc1`, the “hERG current change (%, negative = inhibition) at 10uM” value is on record as -20.4%.
As for `CCn1cc(C(=O)O)c(=O)c2cc(F)c(N3CCN(C(=S)NC(=O)c4c(OC)cccc4OC)CC3)cc21`, the “hERG current change (%, negative = inhibition) at 10uM” value was determined as 12%.
For `NNC(=O)/C(=C/c1cccs1)NC(=O)c1ccccc1Cl`, the “hERG current change (%, negative = inhibition) at 10uM” value stood at 2.33%.
In the case of `Cc1cccc(C(=O)NCc2nnc(SC(C)C(=O)Nc3nnc(C)s3)n2C)c1` (centres unmarked), the “hERG current change (%, negative = inhibition) at 10uM” value turned out to be 19.7%.
Under `CCN1CCN(CC(=O)Nc2nc3ccc(OC)cc3s2)CC1.O=C(O)C(=O)O` stands -30.8%; under `O=C(O)[C@H](Cc1ccccc1)N1C(=O)c2ccncc2C1=O`, 19.3%; under `O=C1OC(Nc2nccs2)c2ccccc21` (centres unmarked), 13.3%.
As for `CCOc1cc(NS(=O)(=O)c2ccc(NC(C)=O)cc2)c(OCC)cc1NC(=O)c1cccs1`, the “hERG current change (%, negative = inhibition) at 10uM” value is reported as 6.31%.
In the case of `CN(Cc1ccc(F)cc1)C(=O)C(c1ccccc1)c1ccccc1`, the “hERG current change (%, negative = inhibition) at 10uM” value is -6.18%.
As to `COc1cc(C(=O)Nc2oc(-c3ccccc3)c(-c3ccccc3)c2C#N)cc(OC)c1OC`, the “hERG current change (%, negative = inhibition) at 10uM” value is recorded as -20.9%.
With `C#CCOCCOCCOCCNc1nc(N2CCN(C(=O)CCCCCCCCCCNC(=O)[C@@H](CCSC)n3cc(CCO)nn3)CC2)nc(N2CCN(C(=O)CCCCCCCCCCNC(=O)[C@H]([C@@H](C)CC)n3cc(CCCCN=C(N)N)nn3)CC2)n1`, the “hERG current change (%, negative = inhibition) at 10uM” value is recorded as 4.27%.
Consider `Cc1cc(=O)oc2ccc(OCC(=O)N(Cc3ccc(F)cc3)Cc3ccco3)cc12`, for which the “hERG current change (%, negative = inhibition) at 10uM” value is on record as -58.8%.
For `O=c1c([N+](=O)[O-])c(N2CCCCC2)c2ccccc2n1-c1ccccc1`, the “hERG current change (%, negative = inhibition) at 10uM” value is 11.7%.
As for `COc1cccc(C(=O)Nc2cccc(-c3nc4ncccc4o3)c2C)c1`, the “hERG current change (%, negative = inhibition) at 10uM” value is recorded as -8.6%.
In the case of `CCOC(=O)c1[nH]c2cc3c(cc2c1CCCN1C(=O)c2ccccc2C1=O)OCCO3` it was -8.32%; in that of `CCCCC1=CC2=CC(=O)C(C)(OC(=O)CC)C(=O)C2=CO1` (centres unmarked), 8.53%.
In the case of `COc1ccc(CC(=O)N/N=C(\C)CC(=O)Nc2cccc(F)c2)cc1`, the “hERG current change (%, negative = inhibition) at 10uM” value is listed as 12.2%.
Take `O=C(CCl)N1CCCC1c1ccc2c(c1)OCCO2` (centres unmarked): the “hERG current change (%, negative = inhibition) at 10uM” value is 18.7%.
Turning to `CCc1noc(C)c1C(=O)NNC(=O)COc1ccccc1C`, the “hERG current change (%, negative = inhibition) at 10uM” value was found to be 6.26%.
On to `Cc1cc(C)cc(NC(=O)CSc2nc3c(oc4ccccc43)c(=O)n2-c2ccccc2)c1`, for which the “hERG current change (%, negative = inhibition) at 10uM” value is recorded as -11.1%.
Take `Cc1csc(SCC(=O)N2CCN(S(=O)(=O)c3ccc(Cl)cc3)CC2)n1`: the “hERG current change (%, negative = inhibition) at 10uM” value is -20.9%.
In the case of `CN1CC2(C)OC(=O)C(Cl)=C2CC1c1ccccc1` (centres unmarked) it was 11.3%.
Turning to `Cc1cc(-c2ccc(Cl)cc2)c2cnn(C(C)C)c2n1`, the “hERG current change (%, negative = inhibition) at 10uM” value was 19.5%.
Regarding `CC(C)C(O)(C#CCN1CCCCC1)c1ccccc1.Cl` (centres unmarked), the “hERG current change (%, negative = inhibition) at 10uM” value is -15.7%.
Consider `O=C1OCCN1P(=O)(c1ccccc1)c1ccccc1`, for which the “hERG current change (%, negative = inhibition) at 10uM” value amounted to 10.4%.
`C=CCOc1ccc(C2N3CC4(CC)CN2CC(CC)(C3)C4=O)cc1` (centres unmarked): the “hERG current change (%, negative = inhibition) at 10uM” value is reported as -18.3%.
On to `CN(C)S(=O)(=O)c1cccc(NC(=O)c2ccc3c(c2)S(=O)(=O)N=C2CCCCCN23)c1`, for which the “hERG current change (%, negative = inhibition) at 10uM” value is recorded as 19.4%.
As for `CCOc1c(C(N)=O)cc([N+](=O)[O-])cc1[N+](=O)[O-]`, the “hERG current change (%, negative = inhibition) at 10uM” value was found to be 3.7%.
`Cc1cc(C)nc(NS(=O)(=O)c2ccc(NC(=O)CN3C(=O)S/C(=C\c4ccccc4)C3=O)cc2)n1`: the “hERG current change (%, negative = inhibition) at 10uM” value is 2.15%.
Turning to `CC(=O)Nc1ccccc1P(=O)(c1ccccc1)c1ccccc1OC(C)=O` (centres unmarked), the “hERG current change (%, negative = inhibition) at 10uM” value is 13.4%.
With `COc1ccc(C(=O)N2CCN(C(=O)c3cc(OC)c(OC)c(OC)c3)CC2)cc1`, the “hERG current change (%, negative = inhibition) at 10uM” value was -17.4%.
Consider `Cc1ccc(C(=O)n2c3ccccc3c3ccccc32)cc1`, for which the “hERG current change (%, negative = inhibition) at 10uM” value is reported as 15.9%.
In the case of `CCc1ccc2[nH]c(=O)c(CN(CCN(C)C)C(=O)Nc3ccccc3OC)cc2c1` it was -64.7%; in that of `COc1ccc2[nH]c(C(=O)O)c(CCN3C(=O)c4cccc([N+](=O)[O-])c4C3=O)c2c1`, 15.7%; in that of `Cc1cccc(C)c1NC(=O)C1CCCN1C(=O)OC(C)(C)C` (centres unmarked), 18.5%.
As for `O=C(NCc1ccc(F)cc1)c1cccc2c1C(=O)c1ccc(N3CCOCC3)cc1S2(=O)=O`, the “hERG current change (%, negative = inhibition) at 10uM” value is listed as -14.8%.
As to `Cc1cccc(C(=O)NN(C)c2nc(-c3ccccc3)nnc2C(F)(F)F)c1`, the “hERG current change (%, negative = inhibition) at 10uM” value is recorded as -5.04%.
`Cl.N=c1n(CCN2CCCC2)c2ccccc2n1CC(O)c1ccc(Cl)c(Cl)c1` (centres unmarked): the “hERG current change (%, negative = inhibition) at 10uM” value is on record as -91.4%.
Under `Cn1c(=O)c2c(nc(NCCc3ccccc3)n2Cc2ccccc2)n(C)c1=O` stands 7.52%; under `O=C(Oc1ccc2ccccc2c1)c1cncc(Br)c1`, -11.6%.
As to `COc1ccccc1-c1cc(C(=O)Nc2ccc(F)cc2F)no1`, the “hERG current change (%, negative = inhibition) at 10uM” value is on record as 2%.
Turning to `COc1ccc(-c2noc(CNC(=O)c3ccc4c(c3)OCO4)n2)cc1`, the “hERG current change (%, negative = inhibition) at 10uM” value is -21.4%.
Take `O=C(CC1CCCCC1)NCc1cn2ccsc2n1`: the “hERG current change (%, negative = inhibition) at 10uM” value amounted to 15%.
Consider `CCc1nnc(NC(=O)CSc2nnc(Cc3cccn3C)n2CCOC)s1`, for which the “hERG current change (%, negative = inhibition) at 10uM” value turned out to be 8.01%.
Under `O=C(NCC(c1cccs1)N1CCOCC1)c1ccc([N+](=O)[O-])cc1` (centres unmarked) stands -13.7%; under `O=C(NCC1CCCN1S(=O)(=O)c1cccs1)C(=O)Nc1cccc(F)c1` (centres unmarked), -15.2%; under `CCOc1cc(/C=N/NC(=O)c2ccncc2)ccc1OC(=O)c1ccc([N+](=O)[O-])cc1`, -15.7%.
In the case of `Cc1ccc(NC(=S)NC(=O)c2ccc(Br)o2)c(C)c1` it was 16.2%; in that of `CCCCn1c(N)c(N(CC(C)C)C(=O)C2CCN(C(=O)c3ccc(Cl)cc3)CC2)c(=O)[nH]c1=O`, 2.37%; in that of `COc1ccc(Cc2nc(C(=O)Nc3ccc(F)cc3)cs2)cc1`, 1.39%.
On to `COc1ccccc1NC(=O)C(C)OC(=O)CCCc1c[nH]c2ccccc12` (centres unmarked), for which the “hERG current change (%, negative = inhibition) at 10uM” value is recorded as -10.2%.
In the case of `O=C(CCC1CCCC1)N[C@@H](Cc1ccc(O)cc1)C(=O)O`, the “hERG current change (%, negative = inhibition) at 10uM” value is listed as 28.8%.
For the molecule `N#Cc1ccc(OCC(=O)N2CCN(c3ccc(C(F)(F)F)cn3)CC2)cc1`, the “hERG current change (%, negative = inhibition) at 10uM” value is given as -54.7%.
Under `CC(=O)N1CC(C)Sc2ccc(S(=O)(=O)N3CCCCC3)cc21` (centres unmarked) stands -5.32%.
Consider `O=C(CO/N=C/c1ccccc1OC(F)F)NCc1cccs1`, for which the “hERG current change (%, negative = inhibition) at 10uM” value is given as -12.9%.
`CCOC(=O)c1sc2nc(C3CC3)cc(-c3ccc(OC)cc3)c2c1N`: the “hERG current change (%, negative = inhibition) at 10uM” value was determined as 10.8%.
Consider `O=C(NCCCc1ccccc1)c1cc(COc2c(F)cccc2F)on1`, for which the “hERG current change (%, negative = inhibition) at 10uM” value is given as -6.23%.
As for `CC1CCCN(CC(=O)Nc2ccc(S(=O)(=O)NC3CCCCC3)cc2)C1` (centres unmarked), the “hERG current change (%, negative = inhibition) at 10uM” value is listed as -20.5%.
Regarding `CC(C)Sc1nc2ccc(Br)cc2[nH]1`, the “hERG current change (%, negative = inhibition) at 10uM” value was -12.2%.
In the case of `O=C(C1CCCN(S(=O)(=O)c2cnc[nH]2)C1)N1CC(=O)N(CCc2ccccc2)C(=O)C1` (centres unmarked) it was 2.78%; in that of `O=C(CSc1ccc(-c2ccc3c(c2)OCO3)nn1)Nc1nccs1`, 12.2%; in that of `O=C(CN1CCN(c2ccccc2)CC1)Nc1ccc(-n2cnnn2)cc1`, -2.52%.
Regarding `O=C(Nc1ccc(N2CCOCC2)cc1)c1ccc(Cl)nc1`, the “hERG current change (%, negative = inhibition) at 10uM” value was -0.522%.
In the case of `COc1ccc(N(CC(=O)N/N=C/c2ccc(OC)cc2OC)S(=O)(=O)c2ccccc2)cc1` it was 22.2%; in that of `Cc1ccc(OCCn2c(=S)[nH]c3c(N)ncnc32)cc1`, -3.01%.
As to `CCOc1cc(N2CCOCC2)c(OCC)cc1NC(=O)CN1CCc2ccccc2C1`, the “hERG current change (%, negative = inhibition) at 10uM” value came out at 2.76%.
`Cc1cc2c3c([nH]c2cc1S(=O)(=O)N1CCC2(CC1)OCCO2)CC(C)(C)CC3=O`: the “hERG current change (%, negative = inhibition) at 10uM” value was -1.27%.
Regarding `O=C(O)C(Cl)(Cl)Cl`, the “hERG current change (%, negative = inhibition) at 10uM” value is given as -8.67%.
As for `Cn1c(CC(=O)Nc2ccccc2)n[nH]c1=S`, the “hERG current change (%, negative = inhibition) at 10uM” value is recorded as 24.9%.
Consider `CCn1c(SCC(=O)Nc2ccccc2F)nnc1-c1cnccn1`, for which the “hERG current change (%, negative = inhibition) at 10uM” value is -34.9%.
Consider `CCCOc1ccc(C(F)(F)F)cc1NC(=O)C1CC(=O)N(Cc2ccco2)C1` (centres unmarked), for which the “hERG current change (%, negative = inhibition) at 10uM” value is listed as -48.4%.
Regarding `CCOC(=O)C1CCN(CCC(=O)Nc2ccccc2Cl)CC1.Cl`, the “hERG current change (%, negative = inhibition) at 10uM” value is listed as -19.3%.

The values above are taken from PMC4336329 (PLoS ONE, 2015).
